In the supplement of paper PMC10338343:
± gives the standard deviation. The entries are a selection whose mix differs from that of the whole data set.

What follows are sequences tested on MIWI (PIWIL1) piRISC loaded with piRNA #1 (30 nt) (assay: pre-steady-state target cleavage rate (min^-1); MIWI and MILI are mouse PIWI proteins and EfPiwi is from a freshwater sponge; tags in brackets are library labels; higher = faster piRNA-guided slicing of the target). Details: guide: piRNA #1 5'p-UGAGGUAGUAGGUUGUAUAGUAUCCAGAGG; auxiliary factor: 500 nM mouse GTSF1.
Procedure, shortened: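 Cleave-'n-Seq reactions paired 0.1 nM transcribed, DNA-blocked target RNA library with 1 nM active affinity-purified piRISC holding one synthetic guide, plus or minus 500 nM GTSF1 partner protein, in HEPES–potassium acetate buffer at 33 °C for 0–8 or 0–960 min. After sequencing of uncleaved targets and normalisation to depth and weakly complementary targets, the pre-steady-state cleavage rate was taken from a burst-and-steady-state fit. Three trials were pooled, and k3 was capped at 0.0001 min^-1.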
With GGUAUGGAUACUAUACAACCUACUACCUCA the “pre-steady-state target cleavage rate” value was 1.88 ± 0.11. For GGUCUGGAACUAUACAACCUACUACCUCA, the “pre-steady-state target cleavage rate” value was 1.59 ± 0.087. GGAGACCUUACUAUAGCAACCUACUACCUCA was tested, and the “pre-steady-state target cleavage rate” value was 0.109 ± 0.016. GGAGUGGAUACUAUAGAACCUAGUACCUCA was tested, and the “pre-steady-state target cleavage rate” value was 0.00753 ± 0.0026. With GCUCUGGAUACUAUACAACCUACUACGUGA the “pre-steady-state target cleavage rate” value was 0.785 ± 0.084. In the case of GGAGACCUAUGUAUACAACCUACUACCUAA, the “pre-steady-state target cleavage rate” value is reported as 0.0981 ± 0.013. In the case of GCACUGGAUACAAUACAACCUACUACCUCA, the “pre-steady-state target cleavage rate” value is reported as 1.8 ± 0.1. With CCUCUGGAUACUAUACAACUACUACCUCA the “pre-steady-state target cleavage rate” value was 0.673 ± 0.042. For GGAGACCUUACUAUACAACCUACUACCCUCA, the “pre-steady-state target cleavage rate” value was 0.999 ± 0.062. For GGAGUGGAUACUAUUCAACCAACUACCUCA, the “pre-steady-state target cleavage rate” value was 0.106 ± 0.011. For GGAGACCAUACUAUAGAACCAACUACCUCA, the “pre-steady-state target cleavage rate” value was 0.0382 ± 0.0054. With GGAGAGGAUACUAAACAACCUACUACCUCA the “pre-steady-state target cleavage rate” value was 1.38 ± 0.066. With GGUCUGCAUACUAUACAUCCUACUACCUCA the “pre-steady-state target cleavage rate” value was 1.49 ± 0.086. With GGAGACCAUACUAAACAACCUACUACCACA the “pre-steady-state target cleavage rate” value was 1.03 ± 0.12. With GGUCUGGAUACUAUACAACCUACUACGAGA the “pre-steady-state target cleavage rate” value was 0.224 ± 0.1.
